According to article PMC6919601, “Identification of Plasmodium dipeptidyl aminopeptidase allosteric inhibitors by high throughput screening” (PLoS ONE, 2019):
Hit rate of the full screen: of about 110,000 compounds, about 230 (0.21%) showed an effect of 50% or more. Some of the results follow.

Target: DPAP1 (Plasmodium falciparum, UniProt Q8IIJ9)
Experiment: primary screen, percent inhibition; read by cleavage of a fluorogenic dipeptide substrate; higher = more effect of the substance
Parameters: species or system P. falciparum D10 trophozoite lysates; single well
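Also: 30 min substrate incubation versus DMSO and 10 µM JCP410 controls.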

Sequence of DPAP1 (Q8IIJ9 whole entry, looked up): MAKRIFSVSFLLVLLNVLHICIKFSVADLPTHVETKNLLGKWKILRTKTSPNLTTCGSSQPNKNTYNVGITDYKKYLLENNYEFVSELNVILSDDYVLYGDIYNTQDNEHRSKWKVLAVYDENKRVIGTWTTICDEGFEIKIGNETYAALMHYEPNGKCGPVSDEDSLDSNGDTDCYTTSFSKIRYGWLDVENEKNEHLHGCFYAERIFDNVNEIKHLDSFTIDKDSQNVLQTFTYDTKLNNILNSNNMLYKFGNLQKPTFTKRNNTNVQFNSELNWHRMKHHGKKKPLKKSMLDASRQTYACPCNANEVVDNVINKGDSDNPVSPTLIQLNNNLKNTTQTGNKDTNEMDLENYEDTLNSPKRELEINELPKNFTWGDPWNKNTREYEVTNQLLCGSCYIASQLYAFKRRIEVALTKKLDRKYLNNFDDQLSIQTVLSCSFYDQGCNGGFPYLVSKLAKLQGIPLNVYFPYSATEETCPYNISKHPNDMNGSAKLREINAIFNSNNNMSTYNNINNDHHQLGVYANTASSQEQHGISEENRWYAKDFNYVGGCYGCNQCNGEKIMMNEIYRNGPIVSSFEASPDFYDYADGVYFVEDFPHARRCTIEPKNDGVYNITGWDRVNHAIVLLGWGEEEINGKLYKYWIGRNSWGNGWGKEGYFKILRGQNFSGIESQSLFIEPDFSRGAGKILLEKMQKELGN

Row | SMILES | % Inhibition @ 10 uM [%]
1 | CCN(CC)CCN(C)Cc1cccc(F)c1 | 3.44
2 | COc1ccccc1CNC(=O)c1ccc2nc3c(cc2c1)CCS3 | 3.04
3 | OC1CCCN(C2CCN(CCc3ccccc3)CC2)C1 (centres unmarked) | -3.6
4 | COc1ccc(C(=O)C2=C(O)C(=O)N(Cc3cccnc3)C2c2ccc(C(C)C)cc2)cc1 (centres unmarked) | 3.8
5 | CCC(=O)Nc1nc(C)c(-c2csc(Nc3ccc(N(C)C)cc3)n2)s1 | 0.214
6 | O=C(c1ccccc1)N1CCN(Cc2ccccc2)CC1 | -4.3
7 | CC(/C=C1\N=C(c2cccc(F)c2)OC1=O)=C\c1ccccc1 | 7.62
8 | CCOC(=O)c1cccnc1SCC(=O)NC(C)CC (centres unmarked) | -4.97
9 | CC(C)c1ccc(N2CC(C(=O)Nc3ccccc3Br)CC2=O)cc1 (centres unmarked) | -4.71
10 | CC1CCC(N(C)CCc2ccccn2)C1 (centres unmarked) | 3.24
11 | COc1ccc(OCCC(=O)c2ccccc2)cc1 | -2.32
12 | Cc1c(/C=C2\SC(=O)N(CC(=O)Nc3ccc4c(c3)OCO4)C2=O)c2ccccc2n1C | 1.35
13 | Cc1nnc(N2CCCC(C(=O)Nc3ccc(Cl)cn3)C2)c2nn(-c3ccccc3)c(C)c12 (centres unmarked) | 0.535
14 | CCCCSc1nnc(-c2ccccc2N)c(O)n1 | -1.99
15 | CCOc1ccccc1C(=O)NCc1ccc(Cl)c(Cl)c1 | 0.163
16 | C=C(C)[C@@H]1CC=C(CN2CCCC2CO)CC1 (some centres unmarked) | -1.75
17 | CCNC(=O)N(CC)Cc1nc(-c2ccc(C)cc2)no1 | 0.00706
18 | O=C(CC1NC(=S)NC1=O)c1ccc2c(c1)CCCC2 (centres unmarked) | -1.05
19 | CCOc1ccc(C2C3=C(O)CC(C)(C)CC3=Nc3nc(SC)nn32)c(OC)c1 (centres unmarked) | -5.19
20 | CCCOc1ccc(C2C(C#N)=C(N)OC3=C2C(=O)CC(C)(C)C3)cc1OCC (centres unmarked) | 0.746
21 | Cc1c(OCc2ccccc2)ccc2c(C(F)(F)F)cc(=O)oc12 | 2.89
22 | CCOCCCNC(=O)CN1CCN(Cc2ccc(Cl)cc2)C1=O | 1.49
23 | C#CCOc1ccc(C2C(C#N)=C(N)Oc3n[nH]c(C)c32)cc1 (centres unmarked) | -6.58
24 | COc1ccc(C(=O)N[C@@H](CC(C)C)C(=O)NCC#N)cc1 | -2.35
25 | COc1cc(OC)c2c(C3N=C(N)Nc4nc5ccccc5n43)cn(Cc3ccccc3)c2c1 (centres unmarked) | 5.38
26 | COCCn1c(-c2ccc(C)cc2)cc(C(=O)O)c1C | -3.33
27 | Cc1nc2cc(-c3ccccc3)nn2c(C)c1CCC(=O)NC(C)c1ccccc1 (centres unmarked) | -4.1
28 | N#CC1=C(N)Oc2cc(O)ccc2C1c1cccnc1 (centres unmarked) | 0.0345
29 | O=C1CC(N2CCCCC2)C(=O)N1c1ccc(N2C(=O)CC(N3CCCCC3)C2=O)cc1 (centres unmarked) | -0.46
